In the RNAGym collection of RNA variant scans (doi:10.1073/pnas.2313332121):
Variants at the background level are over-represented here.

B1: TPR 5TU (parent)
chain: GGAUCUUCUCGAUCUAACAAAAAAGACAAAUCUGCCACAAAGCUUGAGAGCAUCUUCGGAUGCAGAGGCGGCAGCCUUCGGUGGCGCGAUAGCGCCAACGUUCUCAACUAUGACACGCAAAACGCGUGCUCCGUUGAAUGGAGUUUAUCAUG

Variants of: B1
Experiment: polymerase ribozyme fitness, log enrichment relative to wild type (log ratio); higher = more active; in vitro selection for triplet polymerase activity
In short: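 For each subunit of a heterodimeric triplet polymerase ribozyme, a mutant library was built by PCR and transcribed, then taken through a single in vitro selection round in triplicate. Selection involved annealing to a biotinylated primer, the partner subunit and triplets, incubation frozen at −7 °C, gel excision of extended constructs, capture on streptavidin beads and RT-PCR. Genotypes were retained after Illumina sequencing of inputs and outputs only with ≥10 input reads and ≥1 read in each output. Fitness is defined as the logarithm of a genotype's enrichment relative to wild-type enrichment, using inverse-variance-weighted averages across replicates, with the logarithm taken to base 2.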

Variant | polymerase ribozyme fitness (log ratio)
GGAUCUUCUCGAUCUAACAAAAAAGACAAAUCUGCCACAAAGCUUGAGAGCAUCUUCGGAUGCAGAGGCGGCAGCCUUCGGUGGCGCGAUAGCGCCAACGUUCUCAACUAUGACACGCAAAACGCGUACUCCUUUGAAUGGAGUUUAUCAUG [G128A G133U] | -4
GGAUCUUCUCGAUCUAACAAAAAAGACAAAUCUGCCACAAAGCUUGAGAGCAUCUUCGGAUGCAGAGGCGGCAGCCUUCGGUGGCGCGAUAGCGCCAACGUUCUCAACUAUGACACGCAAAACGCAUGCUCUGUUGAAUGGAGUUUAUCAUG [G126A C132U] | -0.105
GGAUCUUCUCGAUCUAACAAAAAAGACAAAUCUGCCACAAAGCUUGAGAGCAUCUUCGGAUGCAGAGGCGGCAGCCUUCGGUGGCGCGAUAGCGCCAACGUUCUCAACUAUGACACGCAAAACGCGAUCUCCGUUGAAUGGAGUUUAUCAUG [U127A G128U] | -3.18
GGAUCUUCUCGAUCUAACAAAAAAGACAAAUCUGCCACAAAGCUUGAGAGCAUCUUCGGAUGCAGAGGCGGCAGCCUUCGGUGGCGCGAUAGCGCCAACGUUCUCAACUAUGACACGCAAAACGCGAGCUCCUUUGAAUGGACUUUAUCAUG [U127A G133U G143C] | ≤ -4.2
GGAUCUUCUCGAUCUAACAAAAAAGACAAAUCUGCCACAAAGCUUGAGAGCAUCUUCGGAUGCAGAGGCGGCAGCCUUCGGUGGCGCGAUAGCGCCAACGUUCUCAACUAUGACACGCAAAACGCAUGCUCCGUUGAAUGGCGUUUAUCAUG [G126A A142C] | -3.28
GGAUCUUCUCGAUCUAACAAAAAAGACAAAUCUGCCACAAAGCUUGAGAGCAUCUUCGGAUGCAGAGGCGGCAGCCUUCGGUGGCGCGAUAGCGCCAACGUUCUCAACUAUGACACGCAAAACGCGUACUCGGUCGAAUGGAGUUUAUCAUG [G128A C132G U135C] | ≤ -4.2
GGAUCUUCUCGAUCUAACAAAAAAGACAAAUCUGCCACAAAGCUUGAGAGCAUCUUCGGAUGCAGAGGCGGCAGCCUUCGGUGGCGCGAUAGCGCCAACGUUCUCAACUAUGACACGCAAAACGCGAGCUCCUUUGGAUGGAGUUUAUCAUG [U127A G133U A137G] | ≤ -4.2
GGAUCUUCUCGAUCUAACAAAAAAGACAAAUCUGCCACAAAGCUUGAGAGCAUCUUCGGAUGCAGAGGCGGCAGCCUUCGGUGGCGCGAUAGCGCCAACGUUCUCAACUAUGACACGCAAAACGCGGGCUCCGUUGAAUGAAGUUUAUCAUG [U127G G141A] | -3.27
GGAUCUUCUCGAUCUAACAAAAAAGACAAAUCUGCCACAAAGCUUGAGAGCAUCUUCGGAUGCAGAGGCGGCAGCCUUCGGUGGCGCGAUAGCGCCAACGUUCUCAACUAUGACACGCAAAACGCGUCCUCCGUUGAAUGGAGUUUAUCAUG [G128C] | -2.21
GGAUCUUCUCGAUCUAACAAAAAAGACAAAUCUGCCACAAAGCUUGAGAGCAUCUUCGGAUGCAGAGGCGGCAGCCUUCGGUGGCGCGAUAGCGCCAACGUUCUCAACUAUGACACGCAAAACGCGGGCUCCGUUGAGUGGCGUUUAUCAUG [U127G A138G A142C] | -3.48
GGAUCUUCUCGAUCUAACAAAAAAGACAAAUCUGCCACAAAGCUUGAGAGCAUCUUCGGAUGCAGAGGCGGCAGCCUUCGGUGGCGCGAUAGCGCCAACGUUCUCAACUAUGACACGCAAAACGCGAGCUCCGCUGAAUGCAGUUUAUCAUG [U127A U134C G141C] | -3.82
GGAUCUUCUCGAUCUAACAAAAAAGACAAAUCUGCCACAAAGCUUGAGAGCAUCUUCGGAUGCAGAGGCGGCAGCCUUCGGUGGCGCGAUAGCGCCAACGUUCUCAACUAUGACACGCAAAACGCGGGCUCCGUUGAAUGGAGUUUUUCAUG [U127G A147U] | -3.92
GGAUCUUCUCGAUCUAACAAAAAAGACAAAUCUGCCACAAAGCUUGAGAGCAUCUUCGGAUGCAGAGGCGGCAGCCUUCGGUGGCGCGAUAGCGCCAACGUUCUCAACUAUGACACGCAAAACGCUUGCUCCGUUGAAUGGAGUUUAUUAUG [G126U C149U] | -1.96
GGAUCUUCUCGAUCUAACAAAAAAGACAAAUCUGCCACAAAGCUUGAGAGCAUCUUCGGAUGCAGAGGCGGCAGCCUUCGGUGGCGCGAUAGCGCCAACGUUCUCAACUAUGACACGCAAAACGCAUGCUCCGUUGAAUAGAGUUUAUCAUG [G126A G140A] | -3.54
GGAUCUUCUCGAUCUAACAAAAAAGACAAAUCUGCCACAAAGCUUGAGAGCAUCUUCGGAUGCAGAGGCGGCAGCCUUCGGUGGCGCGAUAGCGCCAACGUUCUCAACUAUGACACGCAAAACGCGCGCUCCGUUGAAUGGAGUUUACCAUG [U127C U148C] | ≤ -4.2
GGAUCUUCUCGAUCUAACAAAAAAGACAAAUCUGCCACAAAGCUUGAGAGCAUCUUCGGAUGCAGAGGCGGCAGCCUUCGGUGGCGCGAUAGCGCCAACGUUCUCAACUAUGACACGCAAAACGCGGGCUCCGCUGAAUGGAGUUUAUCAUG [U127G U134C] | -3.03
GGAUCUUCUCGAUCUAACAAAAAAGACAAAUCUGCCACAAAGCUUGAGAGCAUCUUCGGAUGCAGAGGCGGCAGCCUUCGGUGGCGCGAUAGCGCCAACGUUCUCAACUAUGACACGCAAAACGCGGGCUCCGAUGAAUGGAGUUUAUCAUG [U127G U134A] | -4.18
GGAUCUUCUCGAUCUAACAAAAAAGACAAAUCUGCCACAAAGCUUGAGAGCAUCUUCGGAUGCAGAGGCGGCAGCCUUCGGUGGCGCGAUAGCGCCAACGUUCUCAACUAUGACACGCAAAACGCGGGCUCCGUUGAAUGGAGGUUAUCAUG [U127G U144G] | -1.7
GGAUCUUCUCGAUCUAACAAAAAAGACAAAUCUGCCACAAAGCUUGAGAGCAUCUUCGGAUGCAGAGGCGGCAGCCUUCGGUGGCGCGAUAGCGCCAACGUUCUCAACUAUGACACGCAAAACGCGUACUCCGUUGGAUGGAGUUUAUCAUG [G128A A137G] | ≤ -4.2
